# Source: US20230235090A1 (HARBOUR BIOMED US, published 2023)
# Residue numbers refer to the chain shown, from its start. Numbers in names are those of the source.
# B1: PR002792 (bispecific antibody, human IgG1, kappa, L234A L235A)
# polypeptide chain 1: EIVMTQSPATLSVSPGERATLSCRASQSISSNLGWYQQKPGQAPRLLIYGASTRATGIPARFSGSGSGTEFTLTISSLQSEDFAVYYCQQYNSWPPLTFGGGTKVEIKRTVAAPSVFIFPPSDEQLKSGTASVVCLLNNFYPREAKVQWKVDNALQSGNSQESVTEQDSKDSTYSLSSTLTLSKADYEKHKVYACEVTHQGLSSPVTKSFNRGEC
# polypeptide chain 2: QVQLVESGGGVVQPGRSLRLSCAASGFTFRSFGMHWVRQAPGKGLEWVAVISYDGSNEYYADSVKGRFIISRDNSKDTLYLQMNSLRAGDTAVYYCAKGGGLRWYFAYWGQGTLVTVSSASTKGPSVFPLAPSSKSTSGGTAALGCLVKDYFPEPVTVSWNSGALTSGVHTFPAVLQSSGLYSLSSVVTVPSSSLGTQTYICNVNHKPSNTKVDKKVEPKSCDKTHTCPPCPAPEAAGGPSVFLFPPKPKDTLMISRTPEVTCVVVDVSHEDPEVKFNWYVDGVEVHNAKTKPREEQYNSTYRVVSVLTVLHQDWLNGKEYKCKVSNKALGAPIEKTISKAKGQPREPQVYTLPPSREEMTKNQVSLTCLVKGFYPSDIAVEWESNGQPENNYKTTPPVLDSDGSFFLYSKLTVDKSRWQQGNVFSCSVMHEALHNHYTQKSLSLSPGEPKSSDKTHTPPPPPRTEVQLLESGGGLVQPGGSLRLSCTASGFTFSNYAMSWVRQAPEKGLEWVSSISGSGGSTFYADSVKGRFTISRDNSKNTLYLQMNRLTAEDTAVYYCAKEGSNGTDDYHYDIDVWGQGTTVTVSS
# notes: IgG-VH: PR001476 IgG + PR001763 VH, linker H1_15-RT, human IgG1 (L234A, L235A, P329G)
# B2: PR002795 (bispecific antibody, human IgG1, kappa, L234A L235A)
# polypeptide chain 1: B1 polypeptide chain 1
# polypeptide chain 2: QVQLVESGGGVVQPGRSLRLSCAASGFTFRSFGMHWVRQAPGKGLEWVAVISYDGSNEYYADSVKGRFIISRDNSKDTLYLQMNSLRAGDTAVYYCAKGGGLRWYFAYWGQGTLVTVSSASTKGPSVFPLAPSSKSTSGGTAALGCLVKDYFPEPVTVSWNSGALTSGVHTFPAVLQSSGLYSLSSVVTVPSSSLGTQTYICNVNHKPSNTKVDKKVEPKSCDKTHTCPPCPAPEAAGGPSVFLFPPKPKDTLMISRTPEVTCVVVDVSHEDPEVKFNWYVDGVEVHNAKTKPREEQYNSTYRVVSVLTVLHQDWLNGKEYKCKVSNKALGAPIEKTISKAKGQPREPQVYTLPPSREEMTKNQVSLTCLVKGFYPSDIAVEWESNGQPENNYKTTPPVLDSDGSFFLYSKLTVDKSRWQQGNVFSCSVMHEALHNHYTQKSLSLSPGEPKSSDKTHTPPPPPRTEVQLLESGGGLVQPGGSLRLSCAASGFTFSNYAMTWVRQAPGKGLEWVSSISGSGDSTYYADSVKGRFTISRDNSKNTLYLQMNSLRAEDTAVYYCAKEGTGTTSDYYYNVDVWGQGTTVTVSS
# notes: IgG-VH: PR001476 IgG + PR001768 VH, linker H1_15-RT, human IgG1 (L234A, L235A, P329G)
# B3: PR003338 (bispecific antibody, human IgG1, kappa)
# light: B1 polypeptide chain 1 with N92Q
# heavy: QVQLVESGGGVVQPGRSLRLSCAASGFTFRSFGMHWVRQAPGKGLEWVAVISYDASNEYYADSVKGRFIISRDNSKDTLYLQMNSLRAGDTAVYYCAKGGGLRWYFAYWGQGTLVTVSSASTKGPSVFPLAPSSKSTSGGTAALGCLVKDYFPEPVTVSWNSGALTSGVHTFPAVLQSSGLYSLSSVVTVPSSSLGTQTYICNVNHKPSNTKVDKKV[letters of human IgG1 Fc with changes not shown]EPKSSDKTHTPPPPPRTEVQLLESGGGLVQPGGSLRLSCAASGFTFSNYAMSWFRQPPETGLKWVSSIDASGGDTYYADSVKGRFTISRDNSKNTLYLQMNSLRAEDTAVYYCAKEGSHGTDDSHYDVDVWGQGTTVTVSS
# notes: IgG-VH tetravalent symmetric; PR002408 IgG x PR004469 VH; linker H1_15-RT; IgG1 (L234A, L235A)
# B4: PR002790 (bispecific antibody, human IgG1, kappa, L234A L235A)
# light: B1 polypeptide chain 1
# heavy: QVQLVESGGGVVQPGRSLRLSCAASGFTFRSFGMHWVRQAPGKGLEWVAVISYDGSNEYYADSVKGRFIISRDNSKDTLYLQMNSLRAGDTAVYYCAKGGGLRWYFAYWGQGTLVTVSSASTKGPSVFPLAPSSKSTSGGTAALGCLVKDYFPEPVTVSWNSGALTSGVHTFPAVLQSSGLYSLSSVVTVPSSSLGTQTYICNVNHKPSNTKVDKKVEPKSCDKTHTCPPCPAPEAAGGPSVFLFPPKPKDTLMISRTPEVTCVVVDVSHEDPEVKFNWYVDGVEVHNAKTKPREEQYNSTYRVVSVLTVLHQDWLNGKEYKCKVSNKALGAPIEKTISKAKGQPREPQVYTLPPSREEMTKNQVSLTCLVKGFYPSDIAVEWESNGQPENNYKTTPPVLDSDGSFFLYSKLTVDKSRWQQGNVFSCSVMHEALHNHYTQKSLSLSPGEPKSSDKTHTPPPPPRTEVQLLESGGGLVQLGGSLRLSCAASGFTFSRYAMTWVRQAPEKGLEWVSSISGSGDDTYYGDSVKGRFTISRDNSQNTVYLQMNSLRAEDTAVYFCAKEKAGTTGDYYYNVDVWGQGTTVTVSS
# notes: IgG-VH tetravalent symmetric; PR001476 IgG x PR001758 VH; IgG1 (L234A, L235A, P329G)
# B5: PR002789 (bispecific antibody, human IgG1, kappa, L234A L235A)
# light: B1 polypeptide chain 1
# heavy: QVQLVESGGGVVQPGRSLRLSCAASGFTFRSFGMHWVRQAPGKGLEWVAVISYDGSNEYYADSVKGRFIISRDNSKDTLYLQMNSLRAGDTAVYYCAKGGGLRWYFAYWGQGTLVTVSSASTKGPSVFPLAPSSKSTSGGTAALGCLVKDYFPEPVTVSWNSGALTSGVHTFPAVLQSSGLYSLSSVVTVPSSSLGTQTYICNVNHKPSNTKVDKKVEPKSCDKTHTCPPCPAPEAAGGPSVFLFPPKPKDTLMISRTPEVTCVVVDVSHEDPEVKFNWYVDGVEVHNAKTKPREEQYNSTYRVVSVLTVLHQDWLNGKEYKCKVSNKALGAPIEKTISKAKGQPREPQVYTLPPSREEMTKNQVSLTCLVKGFYPSDIAVEWESNGQPENNYKTTPPVLDSDGSFFLYSKLTVDKSRWQQGNVFSCSVMHEALHNHYTQKSLSLSPGEPKSSDKTHTPPPPPRTQVQLQQWGAGLLKPSETLSLTCAVYGGSFSGYYWSWIRQPPGKGLEWIGEIQHSGSTDSNPSLKGRVTFSVDTSKNQFSLKLNSVTAADTAVYYCARLTGPFDYWGQGTLVTVSSGGGGSGGGGSGGGGSEIVMTQSPATLSVSPGERATLSCRASQSISSILAWYQQKPGQAPRLLIYGASTRATGIPARFSGSGSGTEFTLTISSLQSEDFAVYYCQQYYNWPLTFGGGTKVEIK
# notes: IgG-scFv tetravalent symmetric; PR001476 IgG x PR000448 scFv; IgG1 (L234A, L235A, P329G)
# B6: PR002972 (bispecific antibody, human IgG1, kappa, L234A L235A)
# light: EIVMTQSPASLSVSPGERATLSCRASQSVSSNLAWYQQKPGQAPRLLIYGASTRATGIPARVSGGGSGTEFTLTISSLQSEDFAVYYCQQYKNWPFTFGPGTKLEIKRTVAAPSVFIFPPSDEQLKSGTASVVCLLNNFYPREAKVQWKVDNALQSGNSQESVTEQDSKDSTYSLSSTLTLSKADYEKHKVYACEVTHQGLSSPVTKSFNRGEC
# heavy: QVQLVQSGAEVKKPGSSMRVSCKASEDTFSSYAISWVRQAPGQGLEWMGGTAPIFGTTNYAQKFQGRVTITADKSTSTAYMELSSLRSEDTAVYYCARGGPYFDYWGQGTLVTVSSASTKGPSVFPLAPSSKSTSGGTAALGCLVKDYFPEPVTVSWNSGALTSGVHTFPAVLQSSGLYSLSSVVTVPSSSLGTQTYICNVNHKPSNTKVDKKVEPKSCDKTHTCPPCPAPEAAGGPSVFLFPPKPKDTLMISRTPEVTCVVVDVSHEDPEVKFNWYVDGVEVHNAKTKPREEQYNSTYRVVSVLTVLHQDWLNGKEYKCKVSNKALGAPIEKTISKAKGQPREPQVYTLPPSREEMTKNQVSLTCLVKGFYPSDIAVEWESNGQPENNYKTTPPVLDSDGSFFLYSKLTVDKSRWQQGNVFSCSVMHEALHNHYTQKSLSLSPGEPKSSDKTHTPPPPPRTQVQLQQWGAGLLKPSETLSLTCAVYGGSFSGYYWSWIRQPPGKGLEWIGEIQHSGSTDSNPSLKGRVTFSVDTSKNQFSLKLNSVTAADTAVYYCARLTGPFDYWGQGTLVTVSSGGGGSGGGGSGGGGSEIVMTQSPATLSVSPGERATLSCRASQSISSILAWYQQKPGQAPRLLIYGASTRATGIPARFSGSGSGTEFTLTISSLQSEDFAVYYCQQYYNWPLTFGGGTKVEIK
# notes: IgG-scFv tetravalent symmetric; PR002410 IgG x PR000448 scFv; IgG1 (L234A, L235A, P329G)
# B7: PR002793 (bispecific antibody, human IgG1, kappa, L234A L235A)
# polypeptide chain 1: B1 polypeptide chain 1
# polypeptide chain 2: QVQLVESGGGVVQPGRSLRLSCAASGFTFRSFGMHWVRQAPGKGLEWVAVISYDGSNEYYADSVKGRFIISRDNSKDTLYLQMNSLRAGDTAVYYCAKGGGLRWYFAYWGQGTLVTVSSASTKGPSVFPLAPSSKSTSGGTAALGCLVKDYFPEPVTVSWNSGALTSGVHTFPAVLQSSGLYSLSSVVTVPSSSLGTQTYICNVNHKPSNTKVDKKVEPKSCDKTHTCPPCPAPEAAGGPSVFLFPPKPKDTLMISRTPEVTCVVVDVSHEDPEVKFNWYVDGVEVHNAKTKPREEQYNSTYRVVSVLTVLHQDWLNGKEYKCKVSNKALGAPIEKTISKAKGQPREPQVYTLPPSREEMTKNQVSLTCLVKGFYPSDIAVEWESNGQPENNYKTTPPVLDSDGSFFLYSKLTVDKSRWQQGNVFSCSVMHEALHNHYTQKSLSLSPGEPKSSDKTHTPPPPPRTEVQLLESGGGLVQPGGSLRLSCAASGFTFSSYAMSWVRQAPEKGLEWVSAISGGGGSTYYADSVKGRFTISRDNSKNTLYLQMDSLKAEDTAVYYCAKEGTTETDDYHYNMDVWGQGTTVTVSS
# notes: IgG-VH: PR001476 IgG + PR001764 VH, linker H1_15-RT, human IgG1 (L234A, L235A, P329G)
# B8: PR002794 (bispecific antibody, human IgG1, kappa, L234A L235A)
# polypeptide chain 1: B1 polypeptide chain 1
# polypeptide chain 2: QVQLVESGGGVVQPGRSLRLSCAASGFTFRSFGMHWVRQAPGKGLEWVAVISYDGSNEYYADSVKGRFIISRDNSKDTLYLQMNSLRAGDTAVYYCAKGGGLRWYFAYWGQGTLVTVSSASTKGPSVFPLAPSSKSTSGGTAALGCLVKDYFPEPVTVSWNSGALTSGVHTFPAVLQSSGLYSLSSVVTVPSSSLGTQTYICNVNHKPSNTKVDKKVEPKSCDKTHTCPPCPAPEAAGGPSVFLFPPKPKDTLMISRTPEVTCVVVDVSHEDPEVKFNWYVDGVEVHNAKTKPREEQYNSTYRVVSVLTVLHQDWLNGKEYKCKVSNKALGAPIEKTISKAKGQPREPQVYTLPPSREEMTKNQVSLTCLVKGFYPSDIAVEWESNGQPENNYKTTPPVLDSDGSFFLYSKLTVDKSRWQQGNVFSCSVMHEALHNHYTQKSLSLSPGEPKSSDKTHTPPPPPRTEVQLVETGGGLIQPGGSLRLSCAASGFTVSSNYMSWVRQAPGKGLEWVSVIYSDGSTYYADSVKGRFTISRDNSKNTLYLQMNSLRAEDTAVYYCARDRYYGSGNYPTAYYGMDVRGQGTTVTVSS
# notes: IgG-VH: PR001476 IgG + PR001767 VH, linker H1_15-RT, human IgG1 (L234A, L235A, P329G)
# Assays:
# human B7-H4 [1] = molecular target: T1, human B7-H4 (human, UniProt Q7Z7D3 25-282); experiment: FACS, SK-BR-3 cells [B]
# T1 construct: whole, on cells; also called VTCN1; SK-BR-3 cell line highly expressing B7-H4
# T1 sequence (looked up): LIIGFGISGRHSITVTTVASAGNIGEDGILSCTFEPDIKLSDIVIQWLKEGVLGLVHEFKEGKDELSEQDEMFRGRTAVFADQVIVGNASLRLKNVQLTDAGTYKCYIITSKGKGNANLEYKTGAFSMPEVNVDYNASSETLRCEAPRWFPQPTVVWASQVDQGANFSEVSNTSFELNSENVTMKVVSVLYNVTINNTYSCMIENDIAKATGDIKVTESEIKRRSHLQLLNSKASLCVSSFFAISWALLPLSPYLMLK
# cynomolgus monkey 4-1BB = molecular target: T2, cynomolgus monkey 4-1BB (cynomolgus monkey); experiment: FACS, CHO-K1/cyno 4-1BB cells [B]
# T2 construct: whole, on cells; also called CHO-K1-cyno 4-1BB; CHO-K1/cyno4-1BB
# human B7-H4 [2] = molecular target: T1, human B7-H4; experiment: FACS, SK-BR-3 cells [A]
Binder,EC50 (human B7-H4 [1]),Maximum MFI (human B7-H4 [1]),further results
B1,0.575 nM,30400 MFI,–
B2,0.643 nM,30100 MFI,–
B3,–,–,EC50 (cynomolgus monkey 4-1BB): 1.29 nM; Maximum MFI (cynomolgus monkey 4-1BB): 25200 MFI
B4,–,–,EC50 (human B7-H4 [2]): 0.717 nM; Maximum MFI (human B7-H4 [2]): 54600 MFI
B5,0.392 nM,34300 MFI,–
B6,3.31 nM,42300 MFI,–
B7,0.565 nM,31300 MFI,–
B8,0.418 nM,30200 MFI,–
